Data published in the supplement of paper PMC10369915.
This is one part of the list. Cut-off read from the data, not from the text of the source: active = 3.2 or more and inactive = the rest. The signal is at background level for most entries.

Target: SHP2 C-SH2 domain E139D
Assay: enrichment score (SH2-bound / input frequency) (ratio); bacterial display of known human phosphotyrosine sites (pTyr-Var adds point mutants) read by sequencing; higher = stronger binding; tyrosines were phosphorylated by kinases first
Conditions: peptide library: pTyr-Var
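Note: displayed peptides selected on beads carrying the immobilized SH2 domain, with library peptides lacking any tyrosine serving as negative controls.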

Enrichment score, inactive:
KPLMPYMRFSR [SMARCE1_Y73_YF] 0.246
QMRLKYSQSDL [SMC1A_Y714] 0.847
NKEAIYSGYIR [SMCHD1_Y283] 0.823
DMQTLYVNTAA [SMCHD1_Y403] 0.936
DMLTLYVNTAA [SMCHD1_Y403_Q400L] 1.91
ERSMSYSDESR [SMG1_Y143] 0.482
RPSELYFSKIS [SMG1_Y2253_G2258S_YF] 1.56
RPSELYFSKIG [SMG1_Y2253_YF] 1.18
EDGCIYPATIA [SMN1_Y109] 0.709
ALIKAYVKAVA [SMN1_Y43_D44V] 0.749
GRLGEYDIDEV [SMS_Y134_V132G] 0.92
KSEMSYIDGEK [SORBS1_Y485] 0.619
WASSSYRETPS [SORBS1_Y79_R74W] 0.688
KSSDVYVSYDY [SORL1_Y136] 0.834
DVFVSYDFGKS [SORL1_Y139_YF] 1.06
LTYHMYADPNF [SOS1_Y618] 1.35
LTFHMYADPNI [SOS1_Y618_F623I_YF] 1.22
KDHPDYKFQLR [SOX10_Y171_P175L_YF] 1.07

Enrichment score, active:
DFKIIYIVPMR [SNRNP200_Y540_A542V] 3.37

Target: SHP2 C-SH2 domain wild-type
Assay: as above
Conditions: peptide library: pTyr-Var

Enrichment score, inactive:
KPLMPYMRFSR [SMARCE1_Y73_YF] 0.222
QMRLKYSQSDL [SMC1A_Y714] 0.752
NKEAIYSGYIR [SMCHD1_Y283] 0.708
DMQTLYVNTAA [SMCHD1_Y403] 0.979
DMLTLYVNTAA [SMCHD1_Y403_Q400L] 1.63
ERSMSYSDESR [SMG1_Y143] 0.536
RPSELYFSKIS [SMG1_Y2253_G2258S_YF] 0.962
RPSELYFSKIG [SMG1_Y2253_YF] 1.02
EDGCIYPATIA [SMN1_Y109] 0.589
ALIKAYVKAVA [SMN1_Y43_D44V] 0.736
GRLGEYDIDEV [SMS_Y134_V132G] 0.939
DFKIIYIVPMR [SNRNP200_Y540_A542V] 3.08
KSEMSYIDGEK [SORBS1_Y485] 0.628
WASSSYRETPS [SORBS1_Y79_R74W] 0.582
KSSDVYVSYDY [SORL1_Y136] 0.631
DVFVSYDFGKS [SORL1_Y139_YF] 0.826
LTYHMYADPNF [SOS1_Y618] 1.52
LTFHMYADPNI [SOS1_Y618_F623I_YF] 1.37
KDHPDYKFQLR [SOX10_Y171_P175L_YF] 0.806

Target: SHP2 N-SH2 domain L43F
Assay: as above
Conditions: peptide library: pTyr-Var

Enrichment score, inactive:
KPLMPYMRFSR [SMARCE1_Y73_YF] 0.241
QMRLKYSQSDL [SMC1A_Y714] 0.76
NKEAIYSGYIR [SMCHD1_Y283] 0.684
DMQTLYVNTAA [SMCHD1_Y403] 0.792
DMLTLYVNTAA [SMCHD1_Y403_Q400L] 1.4
ERSMSYSDESR [SMG1_Y143] 0.594
RPSELYFSKIS [SMG1_Y2253_G2258S_YF] 1.04
RPSELYFSKIG [SMG1_Y2253_YF] 0.932
EDGCIYPATIA [SMN1_Y109] 0.77
ALIKAYVKAVA [SMN1_Y43_D44V] 0.765
GRLGEYDIDEV [SMS_Y134_V132G] 1.05
DFKIIYIVPMR [SNRNP200_Y540_A542V] 3.05
KSEMSYIDGEK [SORBS1_Y485] 0.532
WASSSYRETPS [SORBS1_Y79_R74W] 0.643
KSSDVYVSYDY [SORL1_Y136] 0.709
DVFVSYDFGKS [SORL1_Y139_YF] 0.867
LTYHMYADPNF [SOS1_Y618] 1.86
LTFHMYADPNI [SOS1_Y618_F623I_YF] 1.17
KDHPDYKFQLR [SOX10_Y171_P175L_YF] 1.05

Target: SHP2 N-SH2 domain T42A
Assay: as above
Conditions: peptide library: pTyr-Var

Enrichment score, active:
LTYHMYADPNF [SOS1_Y618] 3.64

Enrichment score, inactive:
KPLMPYMRFSR [SMARCE1_Y73_YF] 0.194
QMRLKYSQSDL [SMC1A_Y714] 0.667
NKEAIYSGYIR [SMCHD1_Y283] 0.593
DMQTLYVNTAA [SMCHD1_Y403] 1.51
DMLTLYVNTAA [SMCHD1_Y403_Q400L] 2.01
ERSMSYSDESR [SMG1_Y143] 0.476
RPSELYFSKIS [SMG1_Y2253_G2258S_YF] 0.649
RPSELYFSKIG [SMG1_Y2253_YF] 0.813
EDGCIYPATIA [SMN1_Y109] 0.6
ALIKAYVKAVA [SMN1_Y43_D44V] 0.623
GRLGEYDIDEV [SMS_Y134_V132G] 0.874
DFKIIYIVPMR [SNRNP200_Y540_A542V] 2.94
KSEMSYIDGEK [SORBS1_Y485] 0.457
WASSSYRETPS [SORBS1_Y79_R74W] 0.521
KSSDVYVSYDY [SORL1_Y136] 0.578
DVFVSYDFGKS [SORL1_Y139_YF] 0.749
LTFHMYADPNI [SOS1_Y618_F623I_YF] 1.35
KDHPDYKFQLR [SOX10_Y171_P175L_YF] 0.956

Target: SHP2 N-SH2 domain T52S
Assay: as above
Conditions: peptide library: pTyr-Var

Enrichment score, active:
DFKIIYIVPMR [SNRNP200_Y540_A542V] 3.21

Enrichment score, inactive:
KPLMPYMRFSR [SMARCE1_Y73_YF] 0.305
QMRLKYSQSDL [SMC1A_Y714] 0.593
NKEAIYSGYIR [SMCHD1_Y283] 0.822
DMQTLYVNTAA [SMCHD1_Y403] 0.869
DMLTLYVNTAA [SMCHD1_Y403_Q400L] 1.46
ERSMSYSDESR [SMG1_Y143] 0.633
RPSELYFSKIS [SMG1_Y2253_G2258S_YF] 1.11
RPSELYFSKIG [SMG1_Y2253_YF] 1.4
EDGCIYPATIA [SMN1_Y109] 0.871
ALIKAYVKAVA [SMN1_Y43_D44V] 0.607
GRLGEYDIDEV [SMS_Y134_V132G] 1.13
KSEMSYIDGEK [SORBS1_Y485] 0.505
WASSSYRETPS [SORBS1_Y79_R74W] 0.539
KSSDVYVSYDY [SORL1_Y136] 0.664
DVFVSYDFGKS [SORL1_Y139_YF] 0.977
LTYHMYADPNF [SOS1_Y618] 1.69
LTFHMYADPNI [SOS1_Y618_F623I_YF] 1.39
KDHPDYKFQLR [SOX10_Y171_P175L_YF] 0.933

Target: SHP2 N-SH2 domain wild-type
Assay: as above
Conditions: peptide library: pTyr-Var

Enrichment score, inactive:
KPLMPYMRFSR [SMARCE1_Y73_YF] 0.179
QMRLKYSQSDL [SMC1A_Y714] 0.595
NKEAIYSGYIR [SMCHD1_Y283] 0.887
DMQTLYVNTAA [SMCHD1_Y403] 0.844
DMLTLYVNTAA [SMCHD1_Y403_Q400L] 1.63
ERSMSYSDESR [SMG1_Y143] 0.651
RPSELYFSKIS [SMG1_Y2253_G2258S_YF] 0.905
RPSELYFSKIG [SMG1_Y2253_YF] 0.955
EDGCIYPATIA [SMN1_Y109] 0.881
ALIKAYVKAVA [SMN1_Y43_D44V] 1.01
GRLGEYDIDEV [SMS_Y134_V132G] 1.07
DFKIIYIVPMR [SNRNP200_Y540_A542V] 2.72
KSEMSYIDGEK [SORBS1_Y485] 0.703
WASSSYRETPS [SORBS1_Y79_R74W] 0.829
KSSDVYVSYDY [SORL1_Y136] 0.812
DVFVSYDFGKS [SORL1_Y139_YF] 0.89
LTYHMYADPNF [SOS1_Y618] 1.21
LTFHMYADPNI [SOS1_Y618_F623I_YF] 1.41
KDHPDYKFQLR [SOX10_Y171_P175L_YF] 0.947
